According to article PMC3101213:
No constants are given. Whether binding was seen depends on the method and setting. For some assays here: In cells and extracts the contact can be indirect. Some entries that bind do so weakly or less than the wild type. For some assays here: Sequences can lack the tags named with a protein. Values belong to the molecule of their own block, whether it stands above or below them.

By UniProt entry, the sequences of proteins in these tests, tags left out. Where a name states a change or a piece, a line headed by the entry shows the natural chain unless it says otherwise. Residues count along the entry.
UniProt P03372: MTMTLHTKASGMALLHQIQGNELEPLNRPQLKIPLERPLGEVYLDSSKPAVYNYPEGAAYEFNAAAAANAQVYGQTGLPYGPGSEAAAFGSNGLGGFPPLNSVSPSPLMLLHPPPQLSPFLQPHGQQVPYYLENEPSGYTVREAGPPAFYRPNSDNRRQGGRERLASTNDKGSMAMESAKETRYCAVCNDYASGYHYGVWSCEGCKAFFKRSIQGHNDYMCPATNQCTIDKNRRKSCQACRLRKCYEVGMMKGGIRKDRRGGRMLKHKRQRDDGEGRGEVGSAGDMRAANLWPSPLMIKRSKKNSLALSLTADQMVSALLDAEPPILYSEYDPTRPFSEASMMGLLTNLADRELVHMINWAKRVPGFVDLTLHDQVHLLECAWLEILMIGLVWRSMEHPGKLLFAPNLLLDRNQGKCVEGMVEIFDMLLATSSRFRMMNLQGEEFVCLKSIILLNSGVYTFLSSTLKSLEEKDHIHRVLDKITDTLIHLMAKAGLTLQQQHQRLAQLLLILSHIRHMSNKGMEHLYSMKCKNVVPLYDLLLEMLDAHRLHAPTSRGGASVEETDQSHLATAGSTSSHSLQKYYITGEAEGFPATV
GST-ERα(180–282), containing the DBD: residues 180-282 of P03372
UniProt Q92731: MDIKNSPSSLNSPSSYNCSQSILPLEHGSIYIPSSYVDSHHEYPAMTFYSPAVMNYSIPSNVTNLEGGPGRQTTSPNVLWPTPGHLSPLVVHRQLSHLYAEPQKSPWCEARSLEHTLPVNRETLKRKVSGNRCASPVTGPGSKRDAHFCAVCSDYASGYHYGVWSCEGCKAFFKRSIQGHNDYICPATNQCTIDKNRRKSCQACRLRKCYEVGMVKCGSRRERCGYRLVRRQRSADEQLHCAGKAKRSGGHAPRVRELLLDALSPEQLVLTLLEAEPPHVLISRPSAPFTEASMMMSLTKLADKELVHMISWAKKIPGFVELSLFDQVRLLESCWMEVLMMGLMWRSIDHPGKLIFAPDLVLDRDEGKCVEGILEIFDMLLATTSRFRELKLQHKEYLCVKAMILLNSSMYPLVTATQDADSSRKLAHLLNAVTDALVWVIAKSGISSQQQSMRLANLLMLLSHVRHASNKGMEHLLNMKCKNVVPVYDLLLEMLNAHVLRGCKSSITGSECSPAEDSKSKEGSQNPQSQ

What was measured:
[1] = target: T1, GST-CTGF(182–349), containing the TSP-1 and CT domains (human) (UniProt P29279); assay: pull-down; purified GST-CTGF fragments bound to glutathione-Sepharose beads incubated with 35S-labelled in vitro translation products; SDS-PAGE and autoradiography; only the target purified
T1 sequence: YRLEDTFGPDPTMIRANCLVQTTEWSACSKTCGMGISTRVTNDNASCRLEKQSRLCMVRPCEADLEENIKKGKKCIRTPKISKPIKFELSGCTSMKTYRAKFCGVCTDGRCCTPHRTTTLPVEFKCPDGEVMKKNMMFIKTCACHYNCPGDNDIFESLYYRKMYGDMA

[2] = target: GST-CTGF(27–187), containing the IGFBP and VWC domains but lacking the signal peptide (human) (UniProt P29279); assay: as above
[3] = target: endogenous CTGF of MCF7 cells (human (endogenous in MCF7)) (UniProt P29279); assay: ELISA; wells coated with mouse anti-human CTGF monoclonal antibody; MCF7 cell lysates together with conditioned media incubated 2 h; detection with rabbit anti-human ERα antibody or normal rabbit serum; absorbance at 415 nm
[4] = target: FLAG-tagged CTGF (full-length CTGF with FLAG at the carboxyl terminus) (human) (UniProt P29279); assay: co-IP; conditioned medium of CTGF-FLAG-transfected MCF7 cells incubated with MCF7 cell lysates, in the presence of E2; lysis buffer 50 mM Tris pH 8.0, 500 mM NaCl, 0.5% Nonidet P-40, 1 mM DTT; IP with anti-FLAG agarose beads, blot with anti-ERα or anti-ERβ
GST-ERα = GST-ERα (UniProt P03372); assay: pull-down; purified GST fusion protein bound to glutathione-Sepharose beads incubated with purified His-fusion proteins; Western blot with anti-His; both purified
[5] = target: GST-ERα(180–282), containing the DBD (UniProt P03372); assay: as above
GST-ERβ = GST-ERβ (UniProt Q92731); assay: as above
[6] = target: T2, GST-CTGF(182–250), containing the TSP-1 domain (human) (UniProt P29279); assay: pull-down; purified GST-CTGF fragments bound to glutathione-Sepharose beads incubated with 35S-labelled in vitro translation products; SDS-PAGE and autoradiography; only the target purified
T2 sequence: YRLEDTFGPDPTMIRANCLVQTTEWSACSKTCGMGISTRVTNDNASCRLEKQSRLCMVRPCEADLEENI

[7] = target: T3, GST-CTGF(244–349), containing the CT domain (human) (UniProt P29279); assay: as above
T3 sequence: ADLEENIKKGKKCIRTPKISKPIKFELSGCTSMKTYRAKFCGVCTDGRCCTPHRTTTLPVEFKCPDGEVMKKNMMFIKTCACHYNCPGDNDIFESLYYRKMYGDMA

- binding [1]: binds weakly
- binding [2]: no binding
Molecule: 35S-labelled in vitro translated ERβ (from UniProt Q92731 1-530)

- binding [3]: binds
- binding [4]: binds
Molecule: endogenous estrogen receptor α (ERα) of MCF7 cells (from UniProt P03372 1-595)

- binding (GST-ERα): binds
- binding [5]: binds
- binding (GST-ERβ): binds
Molecule: His-tagged CTGF (from UniProt P29279 27-349)

- binding [4]: binds
Molecule: endogenous estrogen receptor β (ERβ) of MCF7 cells (from UniProt Q92731 1-530)

- binding [6]: binds
- binding [1]: binds
- binding [7]: no binding
- binding [2]: no binding
Molecule: 35S-labelled in vitro translated ERα (from UniProt P03372 1-595)

- binding (GST-ERα): no binding
- binding (GST-ERβ): no binding
B1: His-tagged Nov (nephroblastoma overexpressed), another CCN family member (protein, UniProt P48745 32-357)
chain: TQRCPPQCPGRCPATPPTCAPGVRAVLDGCSCCLVCARQRGESCSDLEPCDESSGLYCDRSADPSNQTGICTAVEGDNCVFDGVIYRSGEKFQPSCKFQCTCRDGQIGCVPRCQLDVLLPEPNCPAPRKVEVPGECCEKWICGPDEEDSLGGLTLAAYRPEATLGVEVSDSSVNCIEQTTEWTACSKSCGMGFSTRVTNRNRQCEMLKQTRLCMVRPCEQEPEQPTDKKGKKCLRTKKSLKAIHLQFKNCTSLHTYKPRFCGVCSDGRCCTPHNTKTIQAEFQCSPGQIVKKPVMVIGTCTCHTNCPKNNEAFLQELELKTTRGKM
